Laboratory results as given in the RNAGym collection of RNA variant scans (doi:10.7554/elife.90254).
The source gives no read counts; variants with many changes may rest on few reads.

B1: LINE1-mini (parent)
chain: GGCAGAGCUCAACACAGCGUGGCAAAGUGGCUGUGGCUAGACUGCC

Variants of: B1
Test: self-cleavage, relative activity (ratio to wild type); higher = more cleavage; in vitro, sequencing; the parent is a self-cleaving ribozyme

Variant	self-cleavage
GGAAGAGCUCACCACAGCGUGGCUAAGAGGCUGUGGCUAGGCUACC [C3A A12C A24U U28A A41G G44A]	0.03
GGCAUAGCUCAACACAGCGUGGCAAAGUGUCUGUGGCUGGACUGCC [G5U G30U A39G]	0.1
GGGAGAGCUCUACACAGCGUGGCAAAGUCGCUGUGGCUAGACUGCC [C3G A11U G29C]	0.02
GGCAGCGCUCAACACUGCGUGGCAAAGUGGCUGUGGCUAGACUGCA [A6C A16U C46A]	0.01
GGGAGAGCGCAACACAGCGUUGGAAAGUGGUUGUGGCUAGACUGCC [C3G U9G G21U C23G C31U]	0.01
GGCAGAGCUCACCACAGAGUGGCAAAGUGGCUGUGGCUAGAAUGCC [A12C C18A C42A]	0.02
GGCAGAGCCCAACACAGCGUGGCAAAGUGGCUAUCGCUAGACUGCC [U9C G33A G35C]	0.03
GGCAGAGGUCAACACAGCGUGGGAAAGUGGCUGGGGCUAGACUGCC [C8G C23G U34G]	0.01
GGCACUGCUCAACACAGCGUGGCAAAGUGGCUGAGGCUAGACUGCC [G5C A6U U34A]	0.03
GACAGAGCUAAACACAGCGUGGCAAAGUGGCAGUGGCUCGACUGCC [G2A C10A U32A A39C]	0.05
GGCAGUUCUCAACACAGCCUGGCAAAGUGGCUGUGGCUAGACUGCC [A6U G7U G19C]	0.08
GGCAUAGCUCAACACAGAGUGGCCAAGUGGCUGUGGCUAGAGUGCC [G5U C18A A24C C42G]	0.01
GGCAGAGCUCAACACAGCGUAGCAAGGUGACUGUGGCUAGACUGCC [G21A A26G G30A]	1.04
GGCAGGGCUUAACAAAGCGUGGCAAAGUGGUUGUGGCUAGGCUGCC [A6G C10U C15A C31U A41G]	0.03
GGCAGUGCUCAACACAGCGUGACAAAGUGGCUGUGACUAGAUUUCC [A6U G22A G36A C42U G44U]	0.17
GGCAGAUCUCAACACAGCGUGGGAAAGUCGCUGUGGCUAGACUGCC [G7U C23G G29C]	0.03
GGCAGAGCUCACCACAGCGUGGCAAAGUGGCUGUGGCUAGACGGAC [A12C U43G C45A]	0.01
GUGAGAGCUCAACACAACGUGGUAAAGUGGAUAUGGCUAGACUGCC [G2U C3G G17A C23U C31A G33A]	0.03
UGCAGAGCUCAACACAGCUUGGCAAAGUGGCUGUGGCUAUACUGCC [G1U G19U G40U]	0.07

Variant	self-cleavage
GGCAGAGCUCAACACAGCGUGGCAAAGUGCCGGUGGGUAGACUGCA [G30C U32G C37G C46A]	0.03
GGCAGAGCUCACCAGAGCGUGCCAAAGUGGCUGUGGCUAGACUGCC [A12C C15G G22C]	0.01
GGCAAAGCUCAACACAGGGUGGCAAUGUGGCUGUGGCUAGACUGCC [G5A C18G A26U]	0.05
GGCAGAGCUCAUCACAGCGUGGCAAAGUGGCUGUGGUGAGAGUGCC [A12U C37U U38G C42G]	0
GGCAGAGCUCUACACAGAGUCAGAAAGUGUCUGUGGCUAGACUGGC [A11U C18A G21C G22A C23G G30U C45G]	0.02
GGCAGAGCUCAACGCAGCGUGUCAAAGUGGCUGUGGUUAGACUGCC [A14G G22U C37U]	0.04
GGCAGAGCUCAACACAGCGUGGCAAAGUGGCAGUGCCUAGACAACC [U32A G36C U43A G44A]	0.01
GACAUAGCUCAACACACGGUGGCACAGUGGCUGUGGCUAGACUGCC [G2A G5U G17C C18G A25C]	0.08
GGCAGAGAUCAAUCCAGCGUGGCAAAGUGGCUGUGGCUAGACUGCC [C8A C13U A14C]	0.19
GGAAGAGCUAAACACAGCGUGGCAAAGUGGCUAUGGCUAGACUGCA [C3A C10A G33A C46A]	0.04
GGCAGAGCUCAACACCGCGUGGCAAAGUGGCUGUGGCUAGUCGGCC [A16C A41U U43G]	0.06
CGCAGAGCUCACCACAGCGUGGCAAAGUGGCUGUGGCUAGAUUCCC [G1C A12C C42U G44C]	0.02
GGCAGAGCUAAACACAGCGUGGCAAAGUUGCUGGGGCUAGACUGCC [C10A G29U U34G]	0.02
GGCAGAGCUCAAAACAGCGUGUCAAAGUGGCUGUGCCUAGAAUGAC [C13A G22U G36C C42A C45A]	0.01
GGCAGAGCUCAACACAGCGUCGCAAUGUGGCUGUGGCUAGACUUCC [G21C A26U G44U]	0.06
GGAAGAGCUCAACUCAGCGUGUCAAAGUGGCUGUGGCUAGACUGCC [C3A A14U G22U]	0.85
GACAGAACUCAACACAGCGUGGCAAAGUGGCUGUGGCUAGGCCGCG [G2A G7A A41G U43C C46G]	0.23
GGCAGACCUCAACACAGCGCCGCAAAGUGGCUGCGGCUAGACUGGC [G7C U20C G21C U34C C45G]	0.07
GGCAGAGCUCAACACAGCGGGGCAAAAUGGCUGUGGAUAGACUGCC [U20G G27A C37A]	0.03

Variant	self-cleavage
GGCAGAGCUCAACACAGCGUGACAAAGUCGCUGUGCCUAGACUGCC [G22A G29C G36C]	0.03
GGCAGAACUCAGCACAGCGUGGCAAAUUGGCUGUGGCUAGACUGCC [G7A A12G G27U]	0.04
GGCAGAGCUCAACGCAGCGUGGCAAAGUUGCUGUGGCUAGACAGCC [A14G G29U U43A]	0.24
GGCAGAGAUCAACACAGCGUGCCAAAGUGCCUGUGGCUAGACUGCC [C8A G22C G30C]	0.21
GGCAUAGCUCAACACAGCGUGGCAAGGUGGCUGUGGCUGGACUGCC [G5U A26G A39G]	0.18
GGCAGAGGGCAAGACAGCGUGGCAAAGUGGCUGUGGCUAGACUGCU [C8G U9G C13G C46U]	0.07
GGCACAGCUCGACACAGCGUGGUAAAGUGGCUGAGGCUAGACUGCC [G5C A11G C23U U34A]	0
GGCAGUGCUCAACACAGCGUGGCAUCGUGGCUGUGGCUUGAGUUCC [A6U A25U A26C A39U C42G G44U]	0.02
UGCAGAGCUCAACACAGCGUCGCAAACUUGCUGUGGCUAGUCAGCC [G1U G21C G27C G29U A41U U43A]	0
GGCAGAGCUCGACGCAGCGUGGCAAAGUGGCUGUGGCUAGACUGAC [A11G A14G C45A]	0.05
GGCAGAGCUCCACACAGCGAGGCAAAGUGGCUGGGGCUAGACUGCG [A11C U20A U34G C46G]	0
UGCAGAGCUCAACACAGGGUCGCAAAGUGGCUGCGGCUAGACUGCC [G1U C18G G21C U34C]	0.01
GCCAGAGCUCAACACAUCGUGGCAACGGGGCUGUUGAUAGACUGCC [G2C G17U A26C U28G G35U C37A]	0
GGCAGUGCUAAACUCAGCGUGGCAAAGUGGCUGUGGCUAGACUGCC [A6U C10A A14U]	0.06
GGCAGAGCUCAUCACAGCGUGGCAAAGUGGCUGUGGCUAUAUUGCC [A12U G40U C42U]	0.19
GGCAUAGCUCAACACAGCCUGGCAAAGCGGCUGUGGCUAGACUGCC [G5U G19C U28C]	0.06
GGCAAAGCUCAACACAGCAUCGCAAAGUGGCUGUGGCUAGACUGCC [G5A G19A G21C]	0.03
GGCAGAGCUCGACACAGCGAGGCAAAGUGGCUGUGGGGAGACUGCC [A11G U20A C37G U38G]	0
